From ChEMBL document CHEMBL4888484, “Replenishing the malaria drug discovery pipeline: Screening and hit evaluation of the MMV Hit Generation Library 1 (HGL1) against asexual blood stage Plasmodium falciparum ,using a nano luciferase reporter read-out” (2022)
Hit rate of the full screen: of about 150,000 compounds, about 540 (0.36%) showed an effect of 50% or more. Some of the results follow.

Tested on: Plasmodium falciparum
Experiment: Primary screen in NF54 nanoGlo assay, in single point, at 2uM, 72h; a lower Z score goes with more inhibition
Format: functional, Erythrocyte
Conditions: timepoint 72 hour

SMILES | % Inhibition | Z score
CC[C@H]1CN(C(=O)N2CCC(C(=O)NCCCN(C)Cc3ccccc3)CC2)c2cc(C)ccc2O1 | 3% | -0.6
Cc1cccc(C(=O)NC[C@](C)(O)C(F)(F)F)n1 | 7% | -1.26
O=C(c1cccc2[nH]c(C(F)F)nc12)N1CCN2C[C@H](O)C[C@H]2C1 | -6% | 0.8
CCc1cc(C#N)ccc1NC(=O)N(C)Cc1nc(C)c[nH]1 | -7% | 1.44
O=C(N[C@@H](Cc1ccccc1)C(=O)OCc1cnc(-c2ccccc2)o1)c1ccccc1 | 38% | -1.3
C[C@H](NC(=O)CCC1CCN(C)CC1)c1cc(F)cc(F)c1 | -7% | 1.03
O=C(Cc1cccnc1)N1CCO[C@@H](Cc2ccccc2Cl)C1 | -6% | 0.76
Cn1c(=O)n(C)c2cc(S(=O)(=O)N3CCCC3)c(Cl)cc21 | -12% | 1.89
Cc1cc(C)cc(NC(=O)N2CCN(c3nc4cc(Br)ccc4n4cccc34)CC2)c1 | 1% | -0.18
CC(C)[C@@H](C(=O)NCC1(c2ccncc2)CCCC1)N1CCCS1(=O)=O | -2% | 0.3
c1ccc(C[C@H]2CN(C3CC3)CCN2)cc1 | -14% | 1.64
Cc1cc(C(=O)NC2(C(N)=O)CCCCCC2)c2ccc(Cl)cc2n1 | -8% | 1.37
Cc1nc(C)c(CNc2ccc(Cc3nnc4ccccn34)cc2)s1 | -7% | 0.76
Cc1ncnc(N2CC[C@@]3(C2)C(=O)Nc2ccccc23)c1C | -14% | 1.36
Cc1cc(=O)n(CCC(=O)O)c2nn(Cc3ccccc3)cc12 | -39% | 4.6
O=C(NCCNC(=O)C1CC=CCC1)C1CC=CCC1 (configuration not stated) | -24% | 2.78
Cc1ccc(CN2C(=O)NC3(CCCCC3)C2=O)c(O[C@H]2CCOC2)c1 | -9% | 0.98
Cc1nccn1-c1cncc(N2CC[S@+]([O-])C(C)(C)C2)n1 | -16% | 1.33
NC(=O)c1ccc([C@@H]2CCCN2C(=O)Cn2c(C3CC3)nc3ccccc32)s1 | -2% | 0.25
CCc1ccc(C(CO)NC(=O)C2COC(C)C2)cc1 (configuration not stated) | 29% | -3.26
COCCC(=O)N1C(C)CN(C)CC1C (configuration not stated) | -1% | 0.08
CC(=O)c1cnc(NCCCc2csc(N)n2)nc1C | -20% | 1.87

SMILES | % Inhibition | Z score
CN(C)C(=O)c1cccc(-c2ccc3[nH]ccc3c2)n1 | 7% | -0.96
CN1CCCC1C1CCCN1C(=O)c1c[nH]nc1-c1ccncc1 (configuration not stated) | 8% | -1.14
CC(C)c1cc(NC[C@H](O)c2c[nH]cn2)ncn1 | -5% | 0.47
CCc1noc(CN(CC)Cc2cccc3[nH]ccc23)n1 | -3% | 0.65
Cc1cc(C(=O)NCc2nccnc2-c2cccs2)no1 | -13% | 2.43
CC(C)c1scnc1C(=O)NCc1cccc(N)n1 | -8% | 1.06
CN(C)c1ccc(NC(=O)Cc2cnn(-c3ccccc3)c2)cn1 | -12% | 1.6
O=C(Nc1cccs1)N[C@H]1CCN(Cc2ccsc2)C1 | -6% | 0.97
COc1ccnc(Cn2ccc3ncccc3c2=O)c1OC | -10% | 1.08
CC(O)CC1COCCN1C(=O)NC1CCC(C)c2ccccc21 (configuration not stated) | -5% | 0.66
Cc1ccc(S(=O)(=O)NCC2(N(C)C)CCCC2)c(Br)c1 | -1% | 0.08
CCC1=NS(=O)(=O)c2cccnc2N1c1ccccc1 | -12% | 1.18
COCC1CN(C(=O)[C@@H](N)Cc2ccccc2)CCO1 (some centres not stated) | -17% | 2.52
O=C(Cc1ccc(F)cc1Cl)NCCCC[C@H]1CCCO1 | -20% | 2.06
C=CCOc1ccccc1CN1CCC2CCC(C1)N2 (configuration not stated) | -2% | 0.18
CCC(NC(=O)c1ccc(=O)n(C)c1)C1CCCO1 (configuration not stated) | 0% | 0
O=S(=O)(CCOC1CCOC1)NC1CCc2cc(F)ccc21 (configuration not stated) | -13% | 1.61
Cc1ccc(-c2csc(NC(=O)c3cccc(C(=O)Nc4nc(-c5ccc(C)cc5C)cs4)n3)n2)c(C)c1 | 40% | -5.21
Fc1cccc(-c2cc(N3CCNCC3)nc3ccccc23)c1 | -3% | 0.37
O=C(CC1CCCC1)Nc1nc(-c2cc(F)ccc2F)cs1 | -11% | 1.08
Cc1ccc(-c2noc(Cc3nc(-c4ccc5c(c4)OCO5)cs3)n2)cc1 | -13% | 1.25
O=S(=O)(N[C@@H](c1ccsc1)c1cccs1)c1cccc2nsnc12 | 0% | -0.02

SMILES | % Inhibition | Z score
CCOc1ccc([C@@H](CC(=O)N2CCN(CC)CC2)c2c[nH]c3ccccc23)cc1 | -5% | 0.61
COc1cccc(C(NC2CCOC2)c2cc(F)ccc2OC)c1 (configuration not stated) | -2% | 0.25
Fc1cccc(F)c1CC[C@H]1CCCNC1 | 6% | -1.27
CS(=O)(=O)N1CC(CN2CCCNc3ccccc32)C1 | -7% | 1.11
O=C(N[C@H]1CCc2nnc(C3CC3)n2CC1)c1cc(C2CC2)[nH]n1 | -10% | 1.5
CCOc1ncccc1CNC(=O)CCN1CCCCO1 | -6% | 0.77
Cc1n[nH]c2nc(-c3ccccc3)cc(C(=O)NCCc3ccc(S(N)(=O)=O)cc3)c12 | 29% | -3.29
O=C(CCc1ccccc1)N1CCC[C@H]1C1CCNCC1 | -18% | 2.83
COc1ncccc1C(=O)N[C@H]1CCN(c2cnn(C)c2)C1 | -11% | 1.27
Cc1nc(C)c(-c2ccc(C(=O)NCCOCCO)cc2)s1 | -5% | 0.67
NC(=O)C1(NC(=O)c2ccccc2OCC2CC2)CCOCC1 | -3% | 0.35
O=C(Cn1c(=O)c(Cl)cc2ccccc21)NC1CC1 | -13% | 2.48
Cc1cccn2c(Cn3cc(-c4ccc(CO)o4)nn3)cnc12 | -14% | 1.93
CC(=O)N1CCC[C@H](CNc2ccc(Cl)c(C)n2)C1 | 1% | -0.21
O=C(N[C@H]1CCOC1)N1CC(c2nc3ccccc3[nH]2)C1 | 5% | -1
O=C(C1=CCCCO1)N1CCn2c(nnc2C(F)(F)F)C1 | -20% | 2.07
Cc1ccc(-c2csc([C@@H]3CCCO3)n2)s1 | -6% | 0.8
CC1CCC(c2noc([C@H]3CCO[C@@H]3c3cncc(Br)c3)n2)CC1 (some centres not stated) | 39% | -5.89
COCCN1CCC(CN(Cc2ccc(Cl)s2)C[C@H]2CCCO2)CC1 | -7% | 0.76
Nc1nc(-c2ccc(F)cc2)ncc1C(=O)NCc1ccccc1Cl | 31% | -3.5
CC(C)=CCN1C(=O)N[C@@](CCCc2ccccc2)(C2CCNCC2)C1=O | 8% | -1.25
O=S(=O)([C@H]1CCCOC1)N1CCC(Cc2ccccc2)CC1 | -4% | 0.53

SMILES | % Inhibition | Z score
O=C(c1ccc(F)cc1)N1CCC2(CC1)C[C@@H](N1CCCCC1)CCO2 | -13% | 1.67
CCCC1(C2CCN(C(=O)Cc3ccc4c(c3)OCO4)CC2)NC(=O)N(CCC2CCCN2C)C1=O (configuration not stated) | -8% | 1.11
CN1C[C@@H](C(=O)Nc2ccc3c(c2)COC3=O)CC1=O | -3% | 0.44
Cc1ccc(C)c(Cn2cnc3nc4c(cc3c2=O)C[C@@H](C)CC4)c1 | -11% | 1.41
CC(C)(O)C(C)(C)NS(=O)(=O)c1c(Cl)cc(Br)cc1Cl | -1% | 0.08
O=C(c1cccc(C(F)(F)F)c1)N1CCC(N2C(=O)COCC2=O)CC1 | 12% | -1.55
CN1C(=O)CC[C@@H]1C(=O)Nc1cc2c(cn1)CCCC2 | 0% | -0.04
CCNC(=O)N1CCCC[C@H]1c1noc(COc2ccc(C)cc2)n1 | -14% | 1.7
CCn1c(CC2CCNCC2)nn(Cc2nc(-c3ccc(C)cc3)oc2C)c1=O | -16% | 1.52
O=C(NC1CC=CCC1)NC1C2CCOC2C12CCCC2 (configuration not stated) | -19% | 1.66
O=C(Cc1ccsc1)N(CCn1ccc(C(F)(F)F)n1)C1CCCC1 | -15% | 3.07
CC(C)n1c(=O)[nH]c2cc(C(=O)N3CCOC[C@@H]3C)ccc2c1=O | -7% | 0.96
Cc1cccc(CNC(=O)c2cn3c(n2)COCC3)c1 | -10% | 1.68
Cc1nc(-c2c[nH]nc2-c2ccc(OCc3ccc(Br)cc3)cc2O)cs1 | 1% | -0.12
O=S1(=O)CC[C@H](Cn2cc(-c3cc(CN4CCCC4)cs3)nn2)C1 | -7% | 1.2
CCn1ccc2ccc(CN3CCOC[C@@H]3CO)cc21 | 6% | -0.93
COc1ccccc1C(=O)Nc1ccc2c(c1)CN(Cc1ccc(F)cc1)C(=O)[C@H](C)O2 | 0% | 0.05
Cc1noc(C2CCN([C@@H](C(=O)O)c3cccc(Cl)c3)CC2)n1 | -1% | 0.21
Cc1ccc(CN(C)C(=O)C2(Cc3ccc(F)cc3)CCOCC2)o1 | -11% | 1.52
Cc1nc[nH]c1C(=O)N(CCc1ccccc1)C1CCN(C)CC1 | -3% | 0.43
